Out of some 310,000 compounds screened, about 2,200 (0.71%) showed an effect of 50% or more. The effect is printed as a negative number. This is one part of the list.
Target: human ether-à-go-go-related gene (hERG) potassium channel (human, UniProt Q12809)
Experiment: primary screen, population patch clamp on CHO cells stably expressing hERG

human ether-à-go-go-related gene (hERG) potassium channel, sequence (Q12809 whole entry, looked up): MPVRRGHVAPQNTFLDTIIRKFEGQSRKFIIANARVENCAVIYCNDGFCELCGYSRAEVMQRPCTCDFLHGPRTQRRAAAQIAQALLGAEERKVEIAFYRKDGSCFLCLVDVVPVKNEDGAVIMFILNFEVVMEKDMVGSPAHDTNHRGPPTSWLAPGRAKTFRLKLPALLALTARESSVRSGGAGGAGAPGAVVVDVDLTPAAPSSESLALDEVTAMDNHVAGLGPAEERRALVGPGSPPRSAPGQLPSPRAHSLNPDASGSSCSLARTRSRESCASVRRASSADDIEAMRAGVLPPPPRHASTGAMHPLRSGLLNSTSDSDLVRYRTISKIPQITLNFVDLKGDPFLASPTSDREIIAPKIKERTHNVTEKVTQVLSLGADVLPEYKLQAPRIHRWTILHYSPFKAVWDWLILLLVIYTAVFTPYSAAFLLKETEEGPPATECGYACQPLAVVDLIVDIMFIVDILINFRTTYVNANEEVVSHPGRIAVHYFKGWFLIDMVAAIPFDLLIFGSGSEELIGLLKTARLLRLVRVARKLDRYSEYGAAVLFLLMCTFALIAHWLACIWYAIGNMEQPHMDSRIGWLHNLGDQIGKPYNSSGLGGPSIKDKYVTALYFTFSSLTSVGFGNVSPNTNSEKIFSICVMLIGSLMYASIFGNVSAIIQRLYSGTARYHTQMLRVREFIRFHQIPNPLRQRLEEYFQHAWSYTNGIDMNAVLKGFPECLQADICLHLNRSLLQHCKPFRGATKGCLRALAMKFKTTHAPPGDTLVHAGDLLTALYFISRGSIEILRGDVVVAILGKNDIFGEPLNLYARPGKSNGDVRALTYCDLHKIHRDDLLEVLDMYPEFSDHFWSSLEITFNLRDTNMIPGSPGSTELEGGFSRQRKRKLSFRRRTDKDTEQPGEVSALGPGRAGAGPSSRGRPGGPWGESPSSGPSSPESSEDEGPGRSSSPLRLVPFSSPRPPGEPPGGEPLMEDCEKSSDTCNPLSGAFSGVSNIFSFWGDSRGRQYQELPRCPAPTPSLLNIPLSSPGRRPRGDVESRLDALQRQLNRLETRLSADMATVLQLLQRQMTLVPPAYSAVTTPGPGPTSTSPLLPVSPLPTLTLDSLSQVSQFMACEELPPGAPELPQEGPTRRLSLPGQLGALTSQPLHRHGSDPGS

SMILES	hERG current change (%, negative = inhibition) at 1uM [%]
COC(=O)CNC(=O)C(C)NC(=O)OCc1ccccc1 (stereo not drawn)	12.8
O=C(CNC(=O)N1CC(=O)Nc2ccccc21)NCCc1c[nH]c2ccccc12	0.511
CS(=O)(=O)c1ccc(C(=O)Nc2ccc(S(=O)(=O)N3CCCCC3)cc2)cc1	8.31
CC(=O)N(C(C)=O)c1nc(-c2ccccc2)cn1/N=C/c1cccc([N+](=O)[O-])c1	8.04
CCC(=O)Oc1ccc2c(C)cc(=O)oc2c1C(=O)c1ccccc1	10.3
Cc1ccccc1NC(=O)Nc1cc(S(N)(=O)=O)ccc1C	13.5
Nc1nc2n(n1)C(=O)CC(c1ccccc1)N2 (stereo not drawn)	7.48
O=[N+]([O-])c1ccccc1/C=C/C=N/N1CCCCC1	13
CC(NC(=O)Cn1cc(C(F)(F)F)ccc1=O)c1ccc(F)cc1 (stereo not drawn)	2.55
Cc1cccc(OCC(=O)NCc2cc(C)nc3ccccc23)c1	-2.69
Cn1nc(C(C)(C)C)c([N+](=O)[O-])c1C(=O)NC(C)(C)C	9.22
CCOc1cc(CO)cc(Br)c1OCC(=O)O	-5.71
CC(=O)Nc1ccc(CN2CCCC(C(=O)c3cccc(C(F)(F)F)c3)C2)cc1 (stereo not drawn)	7.86
COc1ccc(OC)c(NC(=O)C2CCCN2C(=O)C2CCC(C)CC2)c1 (stereo not drawn)	11.6
CCCCCCCCCS(=O)(=O)Nc1cc(C)ccn1	13.4
C=CCSc1nnc(-c2sc(-c3ccccc3)nc2C)n1C	-0.332
O=C(NC(NC(=O)c1c(F)cccc1F)c1ccc([N+](=O)[O-])cc1)c1c(F)cccc1F	-3.16
O=C(Nc1c(Cl)cc(Cl)cc1C(=O)NCc1cccnc1)c1ccc(Cl)cc1Cl	2.15
COC(=O)CCSCC(=O)N1N=C(c2ccc(OC)cc2)CC1c1cccc(OC)c1OC (stereo not drawn)	7.54
Cc1ccc(S(=O)(=O)N2CCCC2CNC(=O)C(=O)NCCN2CCOCC2)cc1 (stereo not drawn)	16.8
Cc1cccc(NS(=O)(=O)c2ccc(OCC(=O)N3CCCC3)cc2)c1	4.9
CCC(C)c1ccc(O)c(NC(=S)NC(=O)c2cccnc2)c1 (stereo not drawn)	11.9
CC(C)(C)c1ccccc1OCC(O)CN1CCN(c2ccccn2)CC1.Cl (stereo not drawn)	-9.59

SMILES	hERG current change (%, negative = inhibition) at 1uM [%]
C/C(=N\NC(=O)COc1ccccc1[N+](=O)[O-])c1cccs1	15.9
COc1ccc(CNC(=S)Nc2ccc3nc(N4CCOCC4)cc(C)c3c2)cc1	4.04
C=CCNc1nc2c(c(=O)n(C)c(=O)n2C)n1Cc1ccc(F)cc1	5.56
Cn1nc(-c2ccccc2)c(C(=O)Nc2ccc(Cl)cc2)c1Cl	-12.9
C=CCNC(=O)C1COc2ccccc2O1 (stereo not drawn)	6.81
O=C(c1ccc([N+](=O)[O-])cc1)c1cc2ccc(O)cc2oc1=O	5.39
C[C@@H](C(=O)NCc1ccccn1)[C@@H]1C[C@@]1(C)[C@@H](NC(=O)OCc1ccccc1)c1ccccc1	-2.32
Cc1cc(C)c2c(n1)nn1c(NCCOCCO)cc(C)nc21	1.69
Cc1ccc(S(=O)(=O)C2(C(=O)Nc3ccc4c(c3)OCO4)CC2)cc1	-2.71
CCOc1ccc(S(=O)(=O)NCc2ccc(Cl)cc2)c2cccnc12	2.81
CSc1ncccc1C(=O)Nc1nc(C(C)(C)C)cs1	3.63
COc1ccc(-c2ccc(CCC(=O)O)n2CC(=O)Nc2cccc(OC)c2)cc1	5.42
N#Cc1c(N)c(C#N)c(-c2ccc(O)cc2)c2c1CCCC2	-1.33
COc1cc2ncnc(NCCCN3CCOCC3)c2cc1OC	17.3
CC(NC(=O)OC1CCCCC1)N1C(=O)C2C3C=CC(C3)C2C1=O (stereo not drawn)	9.97
C[NH+](C)CCOC(=O)C1(c2ccccc2)CCOCC1.[Cl-]	9.36
O=C(CSc1nnnn1-c1ccc(Cl)cc1)Nc1cccnc1Cl	-0.418
Cc1occc1-c1nc(-c2ccncc2)no1	1.05
COc1cccc(/C=N/Nc2ccnc(=O)[nH]2)c1O	11.2
CN(C(=O)Cn1nnc(-c2cccc(C(F)(F)F)c2)n1)C1CCCCC1	11.4
O=C(Nc1ccccc1N1CCCC1)c1ccco1	14.1
O=C(CN1C(=O)CSC1=O)NC1CCCCC1	-8.29
Cc1ccccc1N(CC(=O)N/N=C/c1ccccc1Cl)C(=O)c1ccccc1	6.14

SMILES	hERG current change (%, negative = inhibition) at 1uM [%]
O=C(c1cccc(Oc2ccccc2)c1)N1CCOCC1	6.28
Cc1ccc(-c2ccc(=O)n(CC(=O)N3CCN(c4cc(Cl)ccc4C)CC3)n2)cc1	-7.47
COc1ccc(N(C)C(=O)C2CCN(S(=O)(=O)c3cccc4nonc34)CC2)cc1	5.89
CCOC(=O)c1nn(-c2cccc(Cl)c2)c2nc(Nc3ccccc3)cc(=O)n12	14.4
O=C(c1ccc2c(c1)ncn2-c1ccc(F)cc1F)N1CCC2(CC1)OCCO2	-1.88
COCCNC(=O)c1ccc(C(=O)NCCOC)s1	16.6
C/C=C/C=[N+](\[O-])C(C)/C(=N/O)c1ccc(F)cc1 (stereo not drawn)	-16.3
O=C(O)CSc1nnc(-c2ccc3c(c2)OCO3)o1	-5.58
COc1cccc(NC(=O)C2CCN(C(=O)NC3CCCCC3)CC2)c1	12.4
COc1ccc(NC(=S)N(CCC(C)C)C2CCN(C(C)C)CC2)cc1	9.32
O=C(c1cccc2nc3ccccc3nc12)N1CCOCC1	11.6
Cc1ccc(S(=O)(=O)N2C3C=CC(C3)C2C(=O)O)cc1 (stereo not drawn)	12.6
CC(=O)CCc1ccc(OCCCCn2cncn2)cc1	3.73
CCCn1c(C(C)Nc2nc(-c3cccc(Br)c3)cs2)nc2ccccc21 (stereo not drawn)	1.41
O=C(Nc1nccs1)C1CC(=O)N(c2ccc(Cl)cc2)C1 (stereo not drawn)	3.23
COC(=O)c1ccccc1NC(=O)C1CCCN(S(=O)(=O)c2ccc(F)cc2)C1 (stereo not drawn)	13.2
CCC1Sc2ccc(S(=O)(=O)CCC(=O)NC3CCCCCC3)cc2NC1=O (stereo not drawn)	9.99
O=C(Nc1nc2ccccc2s1)C1=NN(c2ccccc2)C(=O)CC1	17.1
Oc1ccccc1CNc1ccc2c(c1)OCCO2	9.76
CC1(C)CC(=O)c2cc(C(=O)Nn3cnnc3)c(=O)n(-c3ccccc3)c2C1	0.727
O=C(N/N=C/c1cn(-c2ccccc2)nc1-c1cccs1)c1ccc(Cl)cc1	13.9
CC(=O)Nc1ccc(C(=O)NC2CCSc3ccccc32)cc1 (stereo not drawn)	-1.13
COc1cccc(CC2(CO)CCCN(Cc3nc(-c4cccs4)oc3C)C2)c1 (stereo not drawn)	-31.5

SMILES	hERG current change (%, negative = inhibition) at 1uM [%]
CSCCC(NC(=O)/C(=C/c1ccc(F)cc1)NC(C)=O)C(=O)O (stereo not drawn)	22.3
Cc1ccc(C(=O)c2nccn2C)cc1C	16.2
O=C(Nc1cc(S(=O)(=O)N2CCOCC2)ccc1Oc1ccc(F)cc1)C1=COCCO1	-13.6
O=C([O-])c1cc(-c2ccco2)nc2ccc(Br)cc12.[K+]	6.61
CS(=O)(=O)N(CC(=O)N1CCc2ccccc2C1)Cc1ccccc1	-1.71
Cc1ccc(C)c(NC(=O)CN(C)C(=O)Cn2c(=O)oc3ccccc32)c1	11.6
CCOc1ccc(/C=N/n2cnnc2)cc1	12.3
CCCc1c(C(=O)O)cnn1-c1ccc(Cl)cc1	17.3
COc1ccc(Br)cc1/C=C/C(=O)c1ccc(NC(C)=O)cc1	12.4
COc1ccc(NC(=O)c2ccc3c(c2)OCCO3)cc1OC	14.2
O=C(CCCCCn1c(=O)[nH]c2ccccc2c1=O)N1CCN(Cc2ccc3c(c2)OCO3)CC1	-25.9
CCN(CC)CC(=O)NC12CC3CC(CC(C3)C1)C2.Cl	4.95
FC(F)(F)c1cccc(-c2nc(COc3ccc(Cl)cc3Cl)no2)c1	15
CCN(CC)C(=O)c1[nH]cnc1C(=O)N[C@H](C)c1ccccc1	14.9
CC1CN(C2CCN(S(=O)(=O)c3ccc(F)cc3)CC2)CC(C)O1.O=C(O)C(=O)O (stereo not drawn)	-5.14
C=CCN(CC=C)S(=O)(=O)c1ccc(NC(=S)NC(=O)C2CC2)cc1	8.03
Cc1c([N+](=O)[O-])c(C(=O)Sc2ccc(Br)cc2)nn1C	12.6
COc1c(C)cc(C(=O)C2CCCN(C(=O)c3ccc4[nH]ccc4c3)C2)cc1C (stereo not drawn)	12.8
CCOc1ccc(N2C(=O)C3C4C=CC([C@H]5CC45)[C@@H]3C2=O)cc1 (stereo partly drawn)	12.8
COc1ccc(C2C(C(=O)N3CCC(C)CC3)c3ccccc3C(=O)N2C)cc1 (stereo not drawn)	5.4
CCOc1ccc(-n2nc3ccc(NC(=O)c4ccc5c(c4)OCCO5)cc3n2)cc1	4.27
